From PubChem BioAssay AID2101 (National Center for Advancing Translational Sciences (NCATS), 2009)
About 300 (0.091%) of roughly 330,000 compounds were called active. This list was built around the results that the source calls inconclusive (neither active nor inactive); the mix of calls is not that of the screen. The call rests on the fitted dose curve; in most records, active means well fitted inhibition curve with a large enough effect; inconclusive means small, poorly fitted or top-dose-only effect, or effect the other way, or another doubt; inactive means no such curve, though single readings can be large or run the other way. No potency is given beside an inconclusive call; the fits are too rough.

Biological target: Lysosomal acid glucosylceramidase (Homo sapiens) (UniProt P04062)
Assay: qHTS Assay for Inhibitors and Activators of N370S glucocerebrosidase as a Potential Chaperone Treatment of Gaucher Disease;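 on activity change, negative = inhibition: 0% = full enzyme activity and -100% = no enzyme basal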
Conditions: N370S GC spleen homogenate, 4MU-glucoside fluorescence; activity change, negative = inhibition: at 59.4 µM (top of the series) unless noted
Potency means the concentration at half of the fitted maximal effect.

| Compound | Potency | activity change, negative = inhibition |
| --- | --- | --- |
| Cc1cc(C)c(C)c(S(=O)(=O)Nc2ccccc2C(=O)NCCCN2CCOCC2)c1C | inconclusive [inhibitor, partial curve] | – |
| CCN1CCCc2cc(CN(CCN3CCOCC3)C(=S)Nc3cccc(OC)c3)ccc21 | inconclusive [inhibitor, partial curve, poor fit] | – |
| CCC(C)c1ccc(NC(=O)Nc2cccnc2)cc1 (stereo unspecified) | inconclusive [inhibitor, partial curve] | – |
| CCc1cccc(NC(=O)CCCN2C(=O)C(c3ccccc3)Oc3cccnc32)c1 (stereo unspecified) | inconclusive [activator, single point] | – |
| CC(C)(C)n1nnnc1C(c1cc2cc3c(cc2[nH]c1=O)OCO3)N1CCN(c2ccccc2)CC1 (stereo unspecified) | inconclusive [activator, partial curve, poor fit] | – |
| CN1CCN(C(=S)Nc2ccc(Oc3ccccc3)cc2)CC1 | inconclusive [inhibitor, single point] | – |
| COc1ccc(C=Nc2cccnc2N)cc1 | inconclusive [activator, single point] | – |
| CCCCNC(=O)Oc1ccc(C(=O)N2c3ccccc3NC(=O)C2C)cc1 (stereo unspecified) | inconclusive [inhibitor, single point] | – |
| O=C(NCCCn1ccnc1)c1csc2ccccc12 | inconclusive [inhibitor, partial curve] | – |
| Oc1ccccc1C1=NCCNC(C(F)(F)F)=C1 | inconclusive [inhibitor, partial curve] | – |
| O=C(/C=C/c1ccc(F)cc1)NCc1ccco1 | inconclusive [activator, partial curve, poor fit] | – |
| O=C(NCC1CCCO1)c1cc2c([nH]c3ccccc32)c(-c2cccc(Br)c2)n1 (stereo unspecified) | inconclusive [activator, partial curve] | – |
| CCCNC(=O)C/C(C)=N/NC(=O)C(=O)Nc1ccccn1 | – | inactive: -8.66% |
| O=C(CSc1ncccn1)Nc1ncc(C(F)(F)F)cc1Cl | inconclusive [activator, partial curve, poor fit] | – |
| CC(C)Cn1c(N)c(C(=O)NCC2CCCO2)c2nc3ccccc3nc21 (stereo unspecified) | inconclusive [activator, partial curve] | – |
| Clc1ccc(-n2nnnc2-c2cnc3ccccc3c2-c2ccccc2)cc1 | inconclusive [activator, partial curve] | – |
| COC(=O)c1cnn(-c2ccc(F)cc2F)c1/C=N/NC(=S)NC(C)(C)C | inconclusive [activator, partial curve] | – |
| Nc1ccc(C(=O)OCC(=O)Nc2ccc([N+](=O)[O-])cc2C(F)(F)F)cc1 | – | inactive: -3.1% |
| O=c1c(-c2ccc(F)c(F)c2)nc2cncnc2n1Cc1ccccc1 | – | inactive: 16.6% |
| CCc1cc(=O)oc2c3c(cc(OCC(=O)NCc4ccncc4)c12)OC(C)(C)CC3 | inconclusive [activator, single point] | – |
| Fc1ccc(C(OCCCc2cnc[nH]2)c2ccc(F)cc2)cc1 | inconclusive [inhibitor, single point] | – |
| CC1=C(C(=O)OC2CCCC2)C(c2ccc(C)o2)C2=C(CC(c3cccs3)CC2=O)N1 (stereo unspecified) | inconclusive [activator, partial curve] | – |

| Compound | Potency | activity change, negative = inhibition |
| --- | --- | --- |
| O=C1c2ccccc2C(=O)N1CCCc1c[nH]c2ccc(Cl)cc12 | – | inactive: 8.33% |
| O=C(Nc1ccncc1)Nc1ccc(Cl)cc1 | inconclusive [inhibitor, partial curve] | – |
| O=C(NCc1ccco1)c1ccccc1 | inconclusive [activator, single point] | – |
| CCOc1ccc2nc(NC(=O)C3CCCN(S(=O)(=O)c4cccs4)C3)sc2c1 (stereo unspecified) | inconclusive [activator, partial curve] | – |
| CCOC(=O)c1sc2nc3n(c(=O)c2c1C)CCC(C)CC3 (stereo unspecified) | – | inactive: 13.9% |
| CCN(Cc1ccccc1)C(=O)CS(=O)(=O)c1ccccc1 | – | inactive: -1.51% |
| O=[N+]([O-])c1c(N2CCN(CCO)CC2)nc2ccccn12 | inconclusive [inhibitor, partial curve] | – |
| OCC1(CCOc2ccccc2)CCN(CC2=Cc3cc(Cl)ccc3OC2)CC1 | inconclusive [inhibitor, partial curve] | – |
| COc1ccc(C2CC2/C(=N/OC(=O)c2cccs2)c2ccccc2)cc1 (stereo unspecified) | inconclusive [activator, partial curve] | – |
| N#CC1=C2N=C(N)c3c(sc4c3CCCCC4)N2C2=C(C(=O)CCC2)C1c1ccccc1 (stereo unspecified) | inconclusive [activator, single point] | – |
| CCCn1c(=N)n(CC(=O)c2ccco2)c2ccccc21 | inconclusive [inhibitor, single point] | – |
| CC(C)(C)c1ccc(/C=N/NC(=S)NC2CCCCC2)cc1 | inconclusive [activator, partial curve] | – |
| CCN(CC)S(=O)(=O)c1ccc(N2CCOCC2)c(NC(=O)Cc2ccccc2F)c1 | inconclusive [activator, partial curve] | – |
| CCCC(=O)c1ccc(N2CCOCC2)c(F)c1 | inconclusive [inhibitor, partial curve] | – |
| O=C(O)CCC(=O)c1ccc2ccc3cccc4ccc1c2c34 | inconclusive [activator, partial curve] | – |
| CCN1CCN(CCNC(=O)c2ccc(/C=C3/Sc4ccccc4N(Cc4cccc(C)c4)C3=O)cc2)CC1 | inconclusive [inhibitor, partial curve] | – |
| COc1ccc(C(C#N)c2cnccn2)cc1OC (stereo unspecified) | inconclusive [inhibitor, full curve, poor fit] | – |
| CN(C)CCNc1nc(-c2ccco2)c2c(c1C#N)CC(C)(C)OC2 | – | inconclusive: 28.7% [activator] |
| COCC(C)NC(=O)c1ccc2nc(-c3ccccc3)c(-c3ccccc3)nc2c1 (stereo unspecified) | inconclusive [activator, partial curve] | – |
| O=C(CCCCn1c(=O)[nH]c2ccccc2c1=O)NCc1ccc2c(c1)OCO2 | inconclusive [inhibitor, full curve, poor fit] | – |
| O=C(NNC(=O)c1cc2ccccc2cc1O)Nc1ccc(Br)cc1 | inconclusive [activator, partial curve] | – |
| COc1ccc(C2CC(c3ccccc3)=NN2c2ccc(N)cc2)cc1 (stereo unspecified) | – | inactive: -2.83% |

| Compound | Potency | activity change, negative = inhibition |
| --- | --- | --- |
| NC(=S)n1[nH]c(-c2ccc([N+](=O)[O-])cc2)c(N=Nc2ccc(O)cc2)c1=O | inconclusive [inhibitor, partial curve] | – |
| Cc1nn(-c2ccccn2)c2c1C(c1ccsc1)C1=C(CCCC1=O)N2 (stereo unspecified) | – | inactive: 14.1% |
| CCc1ccc(NC2CC(=O)N(CCc3ccc(OC)c(OC)c3)C2=O)cc1 (stereo unspecified) | – | inactive: 19.7% |
| CC(NC(=O)[C@H](C)N1C(=O)N2CCc3c([nH]c4ccccc34)[C@@]2(C)C1=O)c1ccccc1 (stereo partly specified) | inconclusive [inhibitor, partial curve] | – |
| Cc1c(CCC(=O)NC2CC2)c(=O)oc2cc(O)ccc12 | inconclusive [activator, partial curve] | – |
| COc1ccc(/C=N/n2c(C3CCCCC3)n[nH]c2=S)c(OC)c1 | inconclusive [activator, partial curve] | – |
| COc1ccc(CN2C3CCCC2CC(NC(=O)/C=C/c2ccccc2)C3)cc1 (stereo unspecified) | inconclusive [activator, partial curve, poor fit] | – |
| CCCCn1c(C)cc2cc(O)ccc21 | – | inactive: -1.57% |
| CN(C)c1ccc(NC(=S)c2ccc3ccccc3n2)cc1 | – | inactive: -3.52% |
| Cc1cccc(-c2nc(C#N)c(NC3CCCCC3)o2)c1 | – | inactive: 17.6% |
| Cc1ccc(NC(=S)NCc2ccc(Cl)cc2)c(C)c1 | inconclusive [activator, single point] | – |
| CCCn1nc(C(=O)Oc2ccc3c(C)cc(=O)oc3c2)c2ccccc2c1=O | inconclusive [activator, single point] | – |
| CC(C)N(Cc1nc(-c2ccccc2)no1)C(=O)CSc1ccccc1 | inconclusive [activator, single point] | – |
| COc1cccc(C(=O)c2c[nH]c(C(=O)NCCCN3CCOCC3)c2)c1 | inconclusive [inhibitor, single point] | – |
| Clc1cc(Cl)c(OCc2nc(-c3ccccn3)no2)cc1Cl | inconclusive [activator, partial curve] | – |
| CCOc1ccccc1CNC(=O)c1ccc2c(c1)N(CC)CCS2 | inconclusive [activator, single point] | – |
| CC1(C)CC(=O)c2cc(OCC(=O)NCCN3CCOCC3)ccc2O1 | inconclusive [activator, partial curve, poor fit] | – |
| O=C(NC1CCS(=O)(=O)C1)c1ccc(S(=O)(=O)N2CCCCC2)cc1 (stereo unspecified) | inconclusive [inhibitor, full curve, poor fit] | – |
| CN1CCN(C(=O)CN(c2cccc(Cl)c2)S(=O)(=O)c2ccccc2)CC1 | inconclusive [activator, partial curve] | – |
| NC(N)=NS(=O)(=O)c1ccc(NC(=S)NC(=O)/C=C/c2ccccc2)cc1 | – | inactive: -16.6% |
| Cc1cc(Cl)ccc1N(CC(=O)N=Nc1c(O)[nH]c2ccccc12)S(C)(=O)=O | inconclusive [activator, partial curve] | – |
| CC(=O)NC(CC(=O)c1ccc([N+](=O)[O-])cc1)C(Cl)(Cl)Cl (stereo unspecified) | inconclusive [activator, partial curve, poor fit] | – |
